Screen size: about 150,000 compounds; about 540 (0.36%) showed an effect of 50% or more. The list shows a part of the results.

A word on the % Inhibition: it is the relative decrease from the control value, in per cent.

This experiment has as its system Plasmodium falciparum. The experiment in a line: Primary screen in NF54 nanoGlo assay, in single point, at 2uM, 72h; a lower Z score goes with more inhibition. Type of experiment: functional, Erythrocyte. The following applies: timepoint 72 hour.
With `CCCCCn1c(=O)sc2c(NC(=O)OCC)c(F)cc(Cl)c21`, the “% Inhibition” value was -10% and the Z score came to 1.31.

On to `C=CCC1(OC)CCN(C(=O)c2ccc3nc(-c4ccccc4)cn3c2)CC1`, for which the “% Inhibition” value is -8% and the Z score came out at 0.89.

For the molecule `CN(C(=O)c1ccc(OCC2CCOCC2)nc1)c1ccccc1`, the “% Inhibition” value is on record as -20% and the Z score worked out at 3.76.

Regarding `O=C(c1c[nH]c(=O)[nH]1)N1CCC(n2c(=O)[nH]c3ccccc3c2=O)CC1`, the “% Inhibition” value is reported as -20% and the Z score is given as 2.59.

Turning to `CCN1CCC[C@](C)(C(=O)N2CCN(C(=O)c3ccccc3)CC2)C1`, the “% Inhibition” value is on record as -22% and the Z score is reported as 3.26.

In the case of `Cc1cc(C)n(CNc2ccccc2C)n1`, the “% Inhibition” value is reported as -1% and the Z score is reported as 0.08.

Take `CCOC1CC(NC2CCN(Cc3ccccc3)CC2)C12CCCO2` (centres undefined): the “% Inhibition” value was 12% and the Z score is -1.51.

In the case of `O=C(NCC1CC1)C1Cc2cc(C(F)(F)F)ccc2N2CCN(c3ccccc3)CC12` (centres undefined), the “% Inhibition” value was -10% and the Z score was found to be 1.29.

Turning to `Cc1nc(CN2C[C@H]3CN(C4CCCCC4)C[C@@]3(C(=O)O)C2)c(C)s1`, the “% Inhibition” value is reported as -3% and the Z score was 0.56.

Turning to `COc1cc(COCC2CCN(CC(=O)N3CCOCC3)CC2)cc(OC)c1`, the “% Inhibition” value is -7% and the Z score was 0.79.

Regarding `Cc1noc(C)c1C(=O)N1CCCC1(C)C`, the “% Inhibition” value was -15% and the Z score came out at 2.27.

For the molecule `Cc1nc2ncnn2c(N2CC3(CCN3Cc3ccccc3)C2)c1C`, the “% Inhibition” value is -5% and the Z score came to 0.52.

In the case of `Cc1[nH]c(=O)c(C#N)cc1C(=O)N1CC[C@@]2(CCCN(CC3CCC3)C2=O)C1`, the “% Inhibition” value amounted to 2% and the Z score is recorded as -0.3.

As to `Cc1ccc(O[C@@H](C)CNC(=O)CCc2cscn2)cc1`, the “% Inhibition” value is 1% and the Z score was -0.15.

As to `CNC(=O)c1ccc(-c2ccc(C(=O)NC3(C(N)=O)CCCC3)cc2)o1`, the “% Inhibition” value is on record as -15% and the Z score is on record as 2.

Take `c1cncc(-c2ncc(CN3CCOCC3)s2)c1`: the “% Inhibition” value was -5% and the Z score was determined as 0.95.

On to `CC(C)c1noc(CN[C@@H](C)c2ccc(-c3cccc(C#N)c3)cc2)n1`, for which the “% Inhibition” value is given as -15% and the Z score was determined as 1.46.

Turning to `CCN(CC)c1ccc(NS(=O)(=O)c2cc(-c3cc(C)no3)ccc2OC)c(C)c1`, the “% Inhibition” value is -20% and the Z score was found to be 2.64.

Take `Cc1cc2nccc(NC(=O)N3CCOCC4(CC4)C3)n2n1`: the “% Inhibition” value is reported as -10% and the Z score amounted to 1.98.

`C=CCN1C[C@H](C)N(C(=O)c2ccc(-c3ccc(F)cc3O)cc2)C[C@@H]1C`: the “% Inhibition” value stood at 8% and the Z score is -1.04.

Take `O=S1(=O)C[C@H](NCCc2ccc(F)cc2)[C@@H](S(=O)(=O)c2ccccc2)C1`: the “% Inhibition” value is -4% and the Z score is 0.48.

In the case of `CN1CCC(N(CCc2ccccc2)C(=O)c2cccc(CO)c2)CC1`, the “% Inhibition” value is -8% and the Z score is 1.28.

Turning to `CN(C)Cc1ccc(-c2ccc[nH]c2=O)cc1`, the “% Inhibition” value is recorded as -7% and the Z score turned out to be 1.24.

With `CS(=O)(=O)CC1(CC(=O)N2CCOCc3ccccc32)CC1`, the “% Inhibition” value is listed as -17% and the Z score was 3.67.

As for `Cc1cc(Cl)ccc1NC(=O)c1n[nH]c2c1CCc1ccccc1-2`, the “% Inhibition” value is -5% and the Z score was 0.43.

Regarding `CCCc1cc(=O)n(-c2ccc(C(=O)N3CCNC[C@@H]3C)cc2)[nH]1`, the “% Inhibition” value is -4% and the Z score turned out to be 0.57.

With `CC1(C)CC(=O)N(CC(=O)Nc2c(F)c(F)c(F)c(F)c2F)c2ccccc2S1(=O)=O`, the “% Inhibition” value is on record as -6% and the Z score is given as 0.83.

With `Cc1noc(C[C@H]2CCOC3(CCN(C(=O)c4cc(-c5ccc(F)cc5)n[nH]4)CC3)C2)n1`, the “% Inhibition” value is -10% and the Z score is reported as 1.44.

Consider `CCOc1ccc2c(c1)-c1c(ssc1=S)C(C)(C)N2C(=O)c1ccc2c(c1)OCO2`, for which the “% Inhibition” value is -4% and the Z score stood at 0.45.

As to `OC(COc1ccc(Cl)cc1Cl)CN1CCCN2CCCC2C1` (centres undefined), the “% Inhibition” value is listed as -10% and the Z score is 0.97.

With `Cc1nccc(NCc2c(C)nn(C)c2C)c1Cl`, the “% Inhibition” value is recorded as -8% and the Z score is reported as 1.03.

Regarding `CCS(=O)(=O)c1ccc(S(=O)(=O)N2C(C)CCCC2c2ccccc2)cc1` (centres undefined), the “% Inhibition” value stood at 3% and the Z score is -0.47.

Regarding `O=C1O[C@](Nc2ccccc2)(c2ccccc2)c2ccccc21`, the “% Inhibition” value is -11% and the Z score is 2.04.

Regarding `Cc1ccc2c(c1)CN(CCNC(=O)c1cc(C(F)(F)F)n[nH]1)C[C@H](C)O2`, the “% Inhibition” value is recorded as -6% and the Z score came out at 1.11.

On to `CC(C)Oc1cc(N(C)C[C@H](O)CO)nc(N)n1`, for which the “% Inhibition” value is listed as -18% and the Z score is recorded as 1.7.

As for `C[C@@H](CO)NS(=O)(=O)c1ccc(F)c(Br)c1F`, the “% Inhibition” value is given as -12% and the Z score worked out at 1.48.

As for `C[C@@H](C(=O)NCc1cc2n(n1)CCN(C1CCCCC1)C2)N1CCCC1=O`, the “% Inhibition” value was -12% and the Z score is 1.51.

Consider `CC(=O)NCC[C@H]1CCCCN1Cc1nc(C)cc(C)n1`, for which the “% Inhibition” value was -12% and the Z score amounted to 1.63.

For `Cc1ccc(C)c(S(=O)(=O)NCCNc2cc(N3CCOCC3)nc(C)n2)c1`, the “% Inhibition” value was -12% and the Z score came out at 1.98.

Turning to `Cc1cnc(C2CCOCC2)n1CC1CN(C(=O)c2ccsc2)C1`, the “% Inhibition” value was -17% and the Z score came out at 2.2.

For the molecule `O=C(O)CC1(CC(=O)Nc2ccc3c(c2)OCCO3)CCCCC1`, the “% Inhibition” value is listed as -9% and the Z score stood at 1.42.

With `Cc1cccc(CN2CCN(Cc3cc(C#CCO)cs3)[C@@H](C)C2=O)c1`, the “% Inhibition” value is reported as -1% and the Z score is 0.08.

For the molecule `CC(C)N(Cc1ncc(C2OCCO2)s1)[C@@H](C)c1ccccc1`, the “% Inhibition” value is reported as -7% and the Z score was 0.9.

Take `O=C(Cn1ncccc1=O)NCc1ccnc(-c2ccco2)c1`: the “% Inhibition” value is recorded as -5% and the Z score was determined as 0.84.

As for `COCCc1noc(Cn2ccc3ccn(CC4CC4)c3c2=O)n1`, the “% Inhibition” value is 3% and the Z score is -0.28.

As for `CCN(Cc1cnn(C)c1)C(=O)[C@H]1CCO[C@@H]1c1ccnn1C(C)C`, the “% Inhibition” value was 2% and the Z score is -0.3.

As for `CCn1cc(-c2nc(C)c(C(=O)NCc3cccc(F)c3)s2)c2cccnc21`, the “% Inhibition” value is reported as -3% and the Z score is 0.49.

For the molecule `Cc1ccc(CN2CCc3ncn(CC(=O)NCc4ccccc4)c(=O)c3C2)cc1`, the “% Inhibition” value is on record as -6% and the Z score turned out to be 1.02.

As to `Cc1cnc(C)c(N2CC(c3ncc(C4CC4)cn3)C2)n1`, the “% Inhibition” value is on record as -3% and the Z score is 0.52.

On to `Cc1nn(CC(F)F)cc1C(=O)NC[C@H]1CC(=O)N(C)[C@@H]1c1cnn(C)c1C`, for which the “% Inhibition” value came out at 0% and the Z score came to 0.01.

Turning to `O=C(Nc1nc(-c2ccc3c(c2)OCCO3)cs1)C1CCCC1`, the “% Inhibition” value is -1% and the Z score was 0.12.

Consider `CC(C)Cc1nc(CNC(=O)c2cc(Cl)c[nH]2)no1`, for which the “% Inhibition” value is -7% and the Z score came to 1.47.

In the case of `O=C1c2ccccc2CCc2cccnc21`, the “% Inhibition” value is given as -7% and the Z score amounted to 1.02.

As for `Nc1ncnc(NC[C@H]2CCCS2(=O)=O)c1Cl`, the “% Inhibition” value is -5% and the Z score worked out at 0.65.

Turning to `COc1cccc(-c2cc3c(c(OC)c2)OCCN(S(=O)(=O)c2ccc(F)c(F)c2)C3)n1`, the “% Inhibition” value is -5% and the Z score amounted to 0.83.

Take `COCC(=O)N[C@H]1CO[C@H]2[C@@H]1OC[C@@H]2Nc1nccc(-c2ccc(OC)cc2)n1`: the “% Inhibition” value was -5% and the Z score is given as 0.87.

As for `CN1CCC[C@H](Cn2ncc3ccccc3c2=O)C1`, the “% Inhibition” value is listed as 1% and the Z score was -0.2.

`CC(C)C[C@@H](CO)NS(=O)(=O)Cc1cccc(F)c1`: the “% Inhibition” value is given as 2% and the Z score is on record as -0.26.

Take `Cc1cc(C)cc(N2CCN(C(=O)[C@H]3C[C@@H]3c3ccccc3)CC2=O)c1`: the “% Inhibition” value is listed as -10% and the Z score came to 1.86.

For the molecule `CC[C@H]1C(=O)NCCN1C(=O)Nc1cc(-c2ccco2)ccc1F`, the “% Inhibition” value is recorded as -7% and the Z score turned out to be 1.03.

Turning to `C#CCN1C(=O)[C@@]2(CC(=O)Nc3c2c(C)nn3-c2ncnc3[nH]cnc23)c2cccc(Cl)c21`, the “% Inhibition” value stood at 0% and the Z score is reported as -0.03.

For `CCOC(=O)c1cc(CN[C@@H](C)c2ccc(N3CCCCC3)cc2)on1`, the “% Inhibition” value is listed as -8% and the Z score turned out to be 0.82.

On to `O=C(NC[C@@H]1CCCN2CCCC[C@H]12)c1cccc(NC(=O)c2ccc3c(c2)OCO3)c1`, for which the “% Inhibition” value is listed as -3% and the Z score came to 0.38.

In the case of `Cc1nc[nH]c1CN1C[C@H]2CC[C@@H](C1)N(C(=O)c1cc(C(C)C)oc1C)C2`, the “% Inhibition” value is -5% and the Z score was determined as 0.89.

As for `Cc1cccc(CN2CCC[C@H](C(=O)c3ccc4c5c(cccc35)CC4)C2)n1`, the “% Inhibition” value is given as 58% and the Z score is -11.5.

As to `Nc1c2c(-c3ccc(Cl)cc3)nc(NC3CC3)nc2nn1-c1ccc(Cl)cc1`, the “% Inhibition” value is recorded as -5% and the Z score turned out to be 0.5.

`O=C1CC[C@H](C(=O)NCC2(C3CC3)CC2)N1`: the “% Inhibition” value is -12% and the Z score was 1.29.

Take `O=C(c1cnc(N2CCC3CCCCC32)c(Cl)c1)N1CCOCC1` (centres undefined): the “% Inhibition” value is reported as 2% and the Z score was -0.23.

As for `CCOC(=O)N1CCC(NC(N)=NCCc2ccccc2C)CC1`, the “% Inhibition” value is -8% and the Z score turned out to be 0.68.

As to `CC(C)n1nnnc1-c1ccccc1NC(=O)N1CCc2ccccc2[C@@H]1C`, the “% Inhibition” value was -1% and the Z score came out at 0.1.

In the case of `Cc1cc(Cl)c(NC(=O)N2CCC[C@H](CO)C2)c2cccnc12`, the “% Inhibition” value is reported as -3% and the Z score came out at 0.49.

In the case of `C[C@H](NC(=O)CN1CCCN(C)CC1)C1=CCCCC1`, the “% Inhibition” value was -11% and the Z score is given as 1.69.

With `NC(=O)[C@@H]1CCCN1C(=O)c1cnn2c1CCCC2`, the “% Inhibition” value was -11% and the Z score was 1.27.

Regarding `CC1(C)CN(C(=O)NC[C@H]2CCOC2)CCN1Cc1ccccc1`, the “% Inhibition” value was -4% and the Z score was determined as 0.72.

For the molecule `C[C@@H](c1cccc(-c2nccn2Cc2cccc(C(=O)O)c2)c1)N(C)C`, the “% Inhibition” value is reported as -6% and the Z score was determined as 0.75.

Turning to `COc1ccc(-c2cnnc(NCCCN3CCOCC3)n2)c(OC)c1`, the “% Inhibition” value was -4% and the Z score was 0.51.

Regarding `COc1ccccc1-c1cnn2c(-c3ccncc3)ccnc12`, the “% Inhibition” value is reported as -4% and the Z score was found to be 0.59.

For the molecule `COCc1c(C(=O)N(C)CC(C)C)cnn1-c1nccc(-c2ccco2)n1`, the “% Inhibition” value is -2% and the Z score came to 0.33.

As to `CC1CN(C(=O)c2cc(S(=O)(=O)N3CCCC3)c[nH]2)CC(C)O1` (centres undefined), the “% Inhibition” value is listed as 1% and the Z score is recorded as -0.14.

In the case of `Cc1nc(C)c(CC(=O)N[C@@H]2CCC[C@H]2OCc2ccccc2)s1`, the “% Inhibition” value is listed as -4% and the Z score came out at 0.64.

Regarding `CS(=O)(=O)N1CC(N2CC(F)(F)C[C@H]2C(=O)N2CCN(c3ccccc3F)CC2)C1`, the “% Inhibition” value is recorded as -13% and the Z score came to 1.51.

Regarding `Cc1cc(C(=O)NC[C@](C)(O)c2ccc(-c3ccccc3)cc2)no1`, the “% Inhibition” value is on record as -14% and the Z score was 2.34.
